Here are results for two molecules from PMC6143631 (Nature Communications, 2018).

The assay has as its target T1, CTR9^(1–249) (human, UniProt Q6PD62 fragment).
T1 construct: In the crystal it stood as part of the single-chain fusion m9; source: E. coli BL21(DE3) Codon Plus, co-expressed with a PAF1 fragment, purified (Ni-NTA, SEC)
As to the kind of experiment: SEC; two fragments co-expressed in E. coli and co-purified; analytical size-exclusion column with SDS-PAGE of the fractions. Particulars: both partners purified.

B1: PAF1^([…])(D85N) (domain or fragment)
chain: not shown
Consider B1, for which the binding result is “binds”.

B2: PAF1^([…])(D95Y) (domain or fragment)
chain: not shown
With B2, the binding result is “binds”.
